Experimental data published in the supplement of paper PMC3334620.
In all, about 33,000 sequences were measured (“E-score (-0.5 to 0.5)”: median about -0.012, highest 2% from about 0.27 on). Some of the results follow.

These sequences were tested against T1, Vhr1 (UniProt P40522) (assay: PBM E-score (8-mer binding enrichment) (E-score (-0.5 to 0.5)); higher = stronger / more preferred TF binding; most listed sequences are background and not binding sites). Details: protein concentration: 200 nM; construct: GST-full length.
T1 sequence: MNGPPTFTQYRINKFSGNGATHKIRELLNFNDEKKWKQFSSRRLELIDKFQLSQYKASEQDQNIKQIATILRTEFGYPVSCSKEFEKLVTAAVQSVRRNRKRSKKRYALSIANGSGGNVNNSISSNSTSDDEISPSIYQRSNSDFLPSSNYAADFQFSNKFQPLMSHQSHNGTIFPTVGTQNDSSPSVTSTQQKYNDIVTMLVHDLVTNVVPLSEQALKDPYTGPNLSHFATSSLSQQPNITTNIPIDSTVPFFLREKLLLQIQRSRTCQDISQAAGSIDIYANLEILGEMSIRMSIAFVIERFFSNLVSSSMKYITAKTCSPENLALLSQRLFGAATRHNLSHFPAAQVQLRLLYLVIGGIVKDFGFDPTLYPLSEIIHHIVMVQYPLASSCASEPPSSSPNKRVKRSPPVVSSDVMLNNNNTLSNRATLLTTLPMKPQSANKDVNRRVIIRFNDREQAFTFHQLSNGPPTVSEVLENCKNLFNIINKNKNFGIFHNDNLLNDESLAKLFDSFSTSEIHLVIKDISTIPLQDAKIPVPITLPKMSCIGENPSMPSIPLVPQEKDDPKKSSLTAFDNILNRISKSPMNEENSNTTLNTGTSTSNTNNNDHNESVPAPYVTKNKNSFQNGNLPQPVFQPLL
Outline: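 GST-tagged yeast TFs (full-length or DNA-binding domain) were made by PURExpress in vitro transcription/translation and applied at about 100-200 nM to universal all-10-mer Agilent arrays. The arrays were made double-stranded by primer extension, on fresh or once-stripped slides. Bound protein was detected with fluorescent anti-GST, and scans were normalised with masliner. Each ungapped eight-base word, pooled with its reverse complement, received an E-score (modified Wilcoxon-Mann-Whitney statistic) from the Universal PBM Analysis Suite.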

Q: How did the “PBM E-score” value turn out when GAATGTCA was run?
A: The value was -0.0258.

Q: For CCAGACCA, which “PBM E-score” value is on record?
A: Its value is 0.0519.

Q: How did the “PBM E-score” value turn out when AGCGATCC was run?
A: The value was -0.0495.

Q: Which “PBM E-score” value does the source give for GCTCTGGA here?
A: The value was -0.0124.

Q: With AGCTCCCT as the sequence, how does the “PBM E-score” value read?
A: The value was -0.235.

Q: With AACGATGT as the sequence, how does the “PBM E-score” value read?
A: Its value is 0.0466.

Q: For CAGGCATG, which “PBM E-score” value is on record?
A: The value was 0.114.

Q: Which “PBM E-score” value does the source give for CAGCGACG here?
A: The value was 0.0816.

Q: Which “PBM E-score” value does the source give for GCTAGACC here?
A: The value was -0.0837.

Q: Which “PBM E-score” value does the source give for GTTACGTA here?
A: The value was -0.216.

Q: Which “PBM E-score” value does the source give for CATAGAAA here?
A: Its value is 0.102.

Q: ATGCAGGA was tested. Which “PBM E-score” value did it give?
A: The value was 0.0825.

Q: How did the “PBM E-score” value turn out when CCAATTCA was run?
A: The value was 0.115.

Q: For CTTAAGTA, which “PBM E-score” value is on record?
A: The value was -0.199.

Q: For GGTAAATA, which “PBM E-score” value is on record?
A: Its value is -0.058.

Q: With ACGGAGGG as the sequence, how does the “PBM E-score” value read?
A: Its value is -0.0562.

Q: With CCTGTACA as the sequence, how does the “PBM E-score” value read?
A: Its value is -0.232.

Q: Which “PBM E-score” value does the source give for AGTTACCA here?
A: The value was 0.00368.

Q: For AGCATGGC, which “PBM E-score” value is on record?
A: Its value is -0.0213.

Q: With CATGTGCA as the sequence, how does the “PBM E-score” value read?
A: The value was -0.19.

Q: Which “PBM E-score” value does the source give for CGCAAGAC here?
A: Its value is -0.214.

Q: With GCGGGATA as the sequence, how does the “PBM E-score” value read?
A: Its value is 0.0896.

Q: Which “PBM E-score” value does the source give for AGGAGACG here?
A: Its value is -0.176.

Q: Which “PBM E-score” value does the source give for CCACACAG here?
A: Its value is 0.165.

Q: ATACATAA was tested. Which “PBM E-score” value did it give?
A: The value was 0.135.

Q: GCCATATA was tested. Which “PBM E-score” value did it give?
A: Its value is -0.0482.

Q: For TAAGTCCA, which “PBM E-score” value is on record?
A: The value was -0.214.

Q: Which “PBM E-score” value does the source give for ACACAAGT here?
A: Its value is -0.0792.

Q: ATTCTCTA was tested. Which “PBM E-score” value did it give?
A: Its value is -0.11.

Q: How did the “PBM E-score” value turn out when CCAGATGC was run?
A: The value was 0.121.

Q: GACGCCCC was tested. Which “PBM E-score” value did it give?
A: The value was -0.136.

Q: Which “PBM E-score” value does the source give for TCCTCCGA here?
A: The value was -0.056.

Q: For ATATCAGA, which “PBM E-score” value is on record?
A: Its value is -0.159.

Q: Which “PBM E-score” value does the source give for GTAGATAA here?
A: Its value is 0.0601.

Q: With CGTGTTTC as the sequence, how does the “PBM E-score” value read?
A: The value was -0.143.

Q: For TCGCCGAA, which “PBM E-score” value is on record?
A: The value was -0.0481.

Q: ATAACCAG was tested. Which “PBM E-score” value did it give?
A: The value was 0.116.

Q: ATCGCCAG was tested. Which “PBM E-score” value did it give?
A: Its value is 0.0655.

Q: Which “PBM E-score” value does the source give for AAGCGTAG here?
A: Its value is -0.0898.

Q: AATGAGAT was tested. Which “PBM E-score” value did it give?
A: The value was 0.115.

Q: CCAAAGAC was tested. Which “PBM E-score” value did it give?
A: Its value is -0.186.

Q: CAAGTCGA was tested. Which “PBM E-score” value did it give?
A: The value was -0.062.

Q: For AGCCCGAA, which “PBM E-score” value is on record?
A: The value was -0.151.

Q: For CGCACGAA, which “PBM E-score” value is on record?
A: Its value is 0.0799.

Q: GACTTCAA was tested. Which “PBM E-score” value did it give?
A: Its value is 0.00793.

Q: Which “PBM E-score” value does the source give for ACAGCGTG here?
A: Its value is 0.0256.

Q: With ACTTGGTG as the sequence, how does the “PBM E-score” value read?
A: Its value is 0.0982.

Q: How did the “PBM E-score” value turn out when CCGGTGTC was run?
A: The value was 0.105.

Q: With AGAGAACT as the sequence, how does the “PBM E-score” value read?
A: The value was -0.222.

Q: With AAGCTATG as the sequence, how does the “PBM E-score” value read?
A: The value was -0.0787.

Q: For TCGCTCCA, which “PBM E-score” value is on record?
A: The value was -0.0939.

Q: How did the “PBM E-score” value turn out when GCACAACA was run?
A: The value was -0.0373.

Q: For ACCACTGC, which “PBM E-score” value is on record?
A: The value was 0.00472.

Q: Which “PBM E-score” value does the source give for AGGACGCA here?
A: The value was 0.201.

Q: For CCCCGCGG, which “PBM E-score” value is on record?
A: The value was 0.0864.

Q: How did the “PBM E-score” value turn out when GGTCGCTA was run?
A: The value was -0.0588.

Q: For GGTTTATA, which “PBM E-score” value is on record?
A: Its value is 0.12.

Q: GATCGTCA was tested. Which “PBM E-score” value did it give?
A: The value was -0.0592.

Q: How did the “PBM E-score” value turn out when AAGAGCAG was run?
A: Its value is -0.104.

Q: ACTCGGAT was tested. Which “PBM E-score” value did it give?
A: The value was 0.186.

Q: Which “PBM E-score” value does the source give for ACCTATAT here?
A: Its value is 0.159.

Q: With TACGACCA as the sequence, how does the “PBM E-score” value read?
A: Its value is 0.0823.

Q: How did the “PBM E-score” value turn out when AGAGCACA was run?
A: Its value is 0.216.

Q: CCGGTAGA was tested. Which “PBM E-score” value did it give?
A: Its value is -0.0664.

Q: Which “PBM E-score” value does the source give for AATCGCTC here?
A: Its value is -0.0865.

Q: How did the “PBM E-score” value turn out when AAGTTATG was run?
A: The value was 0.122.

Q: Which “PBM E-score” value does the source give for ATCTACGA here?
A: Its value is -0.0284.

Q: Which “PBM E-score” value does the source give for ACTGGGAA here?
A: Its value is 0.193.

Q: Which “PBM E-score” value does the source give for GAAGTATC here?
A: The value was -0.0172.

Q: For ACGTGAGT, which “PBM E-score” value is on record?
A: Its value is 0.197.

Q: For CAACCAGG, which “PBM E-score” value is on record?
A: Its value is 0.00678.

Q: With CAATTAGA as the sequence, how does the “PBM E-score” value read?
A: Its value is 0.142.

Q: CACGTGAC was tested. Which “PBM E-score” value did it give?
A: The value was 0.108.

Q: CCATCGGC was tested. Which “PBM E-score” value did it give?
A: Its value is -0.116.

Q: Which “PBM E-score” value does the source give for CTCTTCAC here?
A: Its value is 0.0873.

Q: How did the “PBM E-score” value turn out when AATAATCA was run?
A: The value was 0.203.

Q: With GCTTTTGA as the sequence, how does the “PBM E-score” value read?
A: Its value is -0.222.

Q: With CATCATGG as the sequence, how does the “PBM E-score” value read?
A: Its value is 0.152.

Q: With AGCTCCAG as the sequence, how does the “PBM E-score” value read?
A: Its value is -0.115.

Q: How did the “PBM E-score” value turn out when CCGCGATA was run?
A: Its value is 0.0454.

Q: CATTTTAA was tested. Which “PBM E-score” value did it give?
A: The value was -0.137.

Q: Which “PBM E-score” value does the source give for GCACGAGA here?
A: The value was -0.0543.

Q: How did the “PBM E-score” value turn out when GCCGGTTA was run?
A: The value was 0.0586.

Q: Which “PBM E-score” value does the source give for CGAATGCG here?
A: Its value is 0.00337.

Q: How did the “PBM E-score” value turn out when ACTGTCCC was run?
A: Its value is -0.0218.

Q: With AAGAGGGC as the sequence, how does the “PBM E-score” value read?
A: Its value is -0.268.

Q: With TAGTCGCA as the sequence, how does the “PBM E-score” value read?
A: Its value is 0.309.

Q: With CAGGGCCA as the sequence, how does the “PBM E-score” value read?
A: The value was -0.226.

Q: For CTGATTTC, which “PBM E-score” value is on record?
A: The value was -0.00794.

Q: With AACGCTAT as the sequence, how does the “PBM E-score” value read?
A: The value was -0.171.

Q: With ACGATCCT as the sequence, how does the “PBM E-score” value read?
A: Its value is 0.00746.

Q: With CTCAGCCA as the sequence, how does the “PBM E-score” value read?
A: Its value is 0.106.

Q: With TAATAAAA as the sequence, how does the “PBM E-score” value read?
A: The value was -0.0705.

Q: How did the “PBM E-score” value turn out when GCCAAAAC was run?
A: Its value is -0.215.

Q: For CACACCCG, which “PBM E-score” value is on record?
A: Its value is 0.181.

Q: Which “PBM E-score” value does the source give for AGGTCAAC here?
A: Its value is -0.15.

Q: With CCTGGCCA as the sequence, how does the “PBM E-score” value read?
A: Its value is -0.0646.

Q: ATCGTCGA was tested. Which “PBM E-score” value did it give?
A: The value was -0.0285.

Q: How did the “PBM E-score” value turn out when GCTAGAAC was run?
A: Its value is -0.112.

Q: CGTCCGCC was tested. Which “PBM E-score” value did it give?
A: The value was -0.0676.

Q: With GATGCGGA as the sequence, how does the “PBM E-score” value read?
A: Its value is 0.117.

Q: For CCTGGAAC, which “PBM E-score” value is on record?
A: Its value is -0.0218.

Q: Which “PBM E-score” value does the source give for GGGTGCAC here?
A: The value was 0.0155.

Q: Which “PBM E-score” value does the source give for CCAGATCA here?
A: The value was 0.0888.

Q: How did the “PBM E-score” value turn out when GTCTCTCA was run?
A: The value was 0.0336.

Q: Which “PBM E-score” value does the source give for ATAATACC here?
A: The value was 0.212.

Q: CAAATTAG was tested. Which “PBM E-score” value did it give?
A: Its value is 0.0518.

Q: AAATGTTA was tested. Which “PBM E-score” value did it give?
A: The value was -0.121.

Q: Which “PBM E-score” value does the source give for GGGCTGCA here?
A: Its value is 0.0511.

Q: GGCTGTAC was tested. Which “PBM E-score” value did it give?
A: Its value is -0.0289.
